# Measured values taken from paper PMC7566708, “Fibroblast growth factor homologous factors tune arrhythmogenic late NaV1.5 current in calmodulin binding–deficient channels” (JCI Insight, 2020).
# T1: FGF13 (UniProt Q92913-1 1-245)
# T1 construct: FGF13 used for isothermal titration calorimetry; also called FHF; fibroblast growth factor homologous factor
# T1 sequence (looked up): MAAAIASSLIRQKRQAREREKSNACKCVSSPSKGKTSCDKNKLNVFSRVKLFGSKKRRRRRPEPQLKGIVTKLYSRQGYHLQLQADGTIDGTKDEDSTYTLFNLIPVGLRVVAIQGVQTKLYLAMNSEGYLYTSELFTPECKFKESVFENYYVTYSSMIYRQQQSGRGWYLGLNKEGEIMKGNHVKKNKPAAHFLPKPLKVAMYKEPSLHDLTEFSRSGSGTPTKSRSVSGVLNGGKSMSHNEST
# Biological target: T1, FGF13
# Experiment: ITC; NaV1.5 C-terminal domain (20-51 uM) titrated with FGF13 (240-510 uM); ITC-200, 20°C; single-site binding model
# Settings: both partners purified
binder,measurement,value
"NaV1.5 C-terminal domain (domain or fragment, C-terminal domain of the cardiac sodium channel NaV1.5 (SCN5A); also called C-terminus of NaV1.5; NaV1.5 carboxy-terminus) not shown",Kd,16.6 nM
